This is an account of results in PMC12136788.

B1: chr17:60770872:60770873:+_ENSG00000011028_ENST00000303375|hu_hu|hu_hu_hu_mus_True|28_58 (ssRNA)
RNA: GGGAGUUCUACAGUCCGACGAUCUCUUUAAAAAAAAAAAAAAAAAGACAAACAAUAAUAGCACAUUUCGAGAAUCAUCAACUACAGUAGAGGGUCCGCUUUGAGUUGUCCAUGUUCUCGUCCUGCACUGGGACACGGGGACUGCAACAGAGGAUUGAGCAUCA
B2: 45479652_45480140_725_CDS_ENSG00000126088_ENST00000246337|human|control|control (ssRNA)
RNA: GGGAGUUCUACAGUCCGACGAUCCCCUGCAUGGGACUCAAACAGCUGCAAUGCCUGGGCACCAGCCACCACUUGUCCUACCAGAUAUGGGACCAGAGCAUCAGUGAGGAUGCGAAGCAGCUGGUGACUAGCCUGAGGUCUCUGCAACAGAGGAUUGAGCAUCA
B3: 85047046_85049060_925_CDS_ENSMUSG00000024253_ENSMUST00000025101|mouse|control|control (ssRNA)
RNA: GGGAGUUCUACAGUCCGACGAUCGGUGCCGGUACUCUUUGGUGGGAAGAGCUUGUCAUACACCUUUUUCCACAGCUCCAUAGGUGAGUGGGCCUGAAGUUUUCCAAUGUCACUGUCAGGAACAGGAGGAGACCCUAUCUGACACAACAGAGGAUUGAGCAUCA
B4: chr5:6374476:6374477:-_ENSG00000133398_ENST00000255764|hu_mus|motif|central (ssRNA)
RNA: GGGAGUUCUACAGUCCGACGAUCUAGGCUUUUAAAUUUCUUCAUUGUGUCGAUCUUGCCCUUGACUUGCUCGUUUUUAGCGGGAGCCCUCUCCAGGCAUUCUUUGGUGUAGAGCUGGGGAUUCCGACCUUGAUCAAUGUAUUCCAACAGAGGAUUGAGCAUCA
B5: chr3:176767854:176767855:-_ENSG00000177565_ENST00000430069|hu_hu|hu_hu_hu_mus_False|68_68 (ssRNA)
RNA: GGGAGUUCUACAGUCCGACGAUCGACAUCCUUGUUACUGGGCACGUCCUGCCCUCCUUCCCGUAUGCAAUGUCUAAGCACGAGCUGCGUAGGGCCACUCGUGCUGUUCUCACUGAGGUUCCAGAUUCUUGCCGUGGAGUCUCCCAACAGAGGAUUGAGCAUCA
B6: chr22:38894135:38894136:-_ENSG00000100201_ENST00000396821|hu_hu|motif|central (ssRNA)
RNA: GGGAGUUCUACAGUCCGACGAUCAUAGUCAUCGGCCACCUGCUGUACUUGCUGGGCAAGCUCUCUGGUAGGAGCCAGAACGGGACAGAUUGGGCCAUCUCCCCUUUCCAAGUAUGGCUGGUGGUUAAUAUGAACAAUUGCAGGCAACAGAGGAUUGAGCAUCA
B7: chr2:5814250:5814251:-_ENSMUSG00000025816_ENSMUST00000102981|mus_hu|mus_mus_mus_hu_True|58_78 (ssRNA)
RNA: GGGAGUUCUACAGUCCGACGAUCUUCCUUUCCGGUUUCUGAAUUUCUGGUAGAACUGCACAGAAAGGUUUGAUAACUUCUAAAAACUUGAUGCCCAUGGCUGCUGCUGGGGAGGCCCAGGGGGAAACCGCGGCCUCGGCGCUGCAACAGAGGAUUGAGCAUCA
B8: chr4:81121375:81121376:+_ENSG00000152784_ENST00000415738|hu_hu|motif|central (ssRNA)
RNA: GGGAGUUCUACAGUCCGACGAUCUACCCGAAAGAUAUACGGUACUGUUCUCUUGUCAGUAGACUUGAGAGCUAUGAAAGCGGUGCUGUCAUAUAGGGAAGUAUGGCUCAGGACACAGGGACCAAAUAUAGCAUUCUCAGGGAUCAACAGAGGAUUGAGCAUCA
B9: chr16:1877921:1877922:+_ENSG00000180185_ENST00000427358|hu_mus|FALSE|FALSE (ssRNA)
RNA: GGGAGUUCUACAGUCCGACGAUCUUUCAUUAUUAGUGUCAUUUAUUUCCCUUGCUUCUGUCUCCCUUCCCCUUUGGCACUCUACUCUCAGUAUUCUGAUCUUUUCACCUUGAACCUCAUACUAACCACCCCAUCUAUGCCGGCCAACAGAGGAUUGAGCAUCA
B10: chr1:78428520:78428521:-_ENSG00000162613_ENST00000370768|hu_hu|FALSE|FALSE (ssRNA)
RNA: GGGAGUUCUACAGUCCGACGAUCCCCUAAAGGAUUUACUGGGCCACCAAUCUUUUCUUCUAUGAGUUGCCGAGCAUAGUCUAUCUGUUGUGGAGUGCCACGAAUUGUAAAUAACUUCAUAUUAGGAUCUGCAUUUGGUGGAGGCAACAGAGGAUUGAGCAUCA
B11: chr11:130013608:130013609:+_ENSG00000084234_ENST00000528499|hu_mus|FALSE|FALSE (ssRNA)
RNA: GGGAGUUCUACAGUCCGACGAUCUAGAGCAUGUGUGAGACAAUACAAUAGAAGUGGCAUUUCUAAUUUAAAAAAAGAAAACUACAUCCAUCAGAUAUCUGCAAUAGAUCUUUUUCUUUCAUUUCACUUAAGGUUUAUAUAUCACAACAGAGGAUUGAGCAUCA
B12: chr19:16212804:16212805:+_ENSG00000167460_ENST00000300933|hu_mus|hu_hu_hu_mus_False|68_108 (ssRNA)
RNA: GGGAGUUCUACAGUCCGACGAUCAACAAAUAUGCAAUGAAGGAAAGAUGUAACAUGGAACAGCAUUCCAUCUAUUACAGAAGGCACAUGGGCAACAAUGAUCACCCCAGCAUUCUCGCUUGGAAUGCUUAAAGACAAUCUGUUCAACAGAGGAUUGAGCAUCA
B13: chr22:35691198:35691199:+_ENSG00000100281_ENST00000216106|hu_hu|FALSE|FALSE (ssRNA)
RNA: GGGAGUUCUACAGUCCGACGAUCCCUUUAAGCAACAUAGCCCUGUGACAACACUGGUGGGGAGAAGGGAAGAAAUUAAAUAGGAUGCAGAUGGGCUACACUGUCCCCAAAGAUUUACUUUGAUGCUGUAGUGCUCUGUCAGGGCAACAGAGGAUUGAGCAUCA
B14: chr3:41267201:41267202:+_ENSG00000168036_ENST00000349496|hu_hu|motif|central (ssRNA)
RNA: GGGAGUUCUACAGUCCGACGAUCCAAGAAUUUAACAUUUGUUUUGUUGAGCAAGGCAACCAUUUUCUGCAGCCCACCAGCGGAACGCACUGCCAUUUUAGCUCCUUCUUGAUGUAAUAAAAGGUUGUGGAGAGUUGUAAUGGCCAACAGAGGAUUGAGCAUCA
B15: chr11:101919151:101919152:-_ENSMUSG00000017314_ENSMUST00000017458|mus_mus|FALSE|FALSE (ssRNA)
RNA: GGGAGUUCUACAGUCCGACGAUCAAAUGAGAUUCCUAAUAUAAUAAAUAUAUUUCUAGCAUUUGUAAUAAAUAUUCUGUCUAUUCUCCCUCCCUCCCCUUCUCUAGGAUAUGGGCACACAGUGGUUCAGGGACAAGCUUGGGCCAACAGAGGAUUGAGCAUCA
B16: chr9:108415247:108415248:+_ENSMUSG00000032604_ENSMUST00000006838|mus_mus|FALSE|FALSE (ssRNA)
RNA: GGGAGUUCUACAGUCCGACGAUCCAUUGCCUCAAAGAGCAGCAAUGAUUCUUCCUUAGGCCUGUCCCUCCAUGGAGAAGGUAAAGGGUUAUGGCCUUUGAGCUCUUCCACUCUCUGGUGACACACAUAAGCAAGACCCCCAUGCAACAGAGGAUUGAGCAUCA
B17: chr2:24297012:24297013:-_ENSG00000115128_ENST00000233468|hu_hu|FALSE|FALSE (ssRNA)
RNA: GGGAGUUCUACAGUCCGACGAUCACGAAUAGGUCCAUAUUUCCCAAAUAUAUCAUACAUUUCUUCAGCUGUGAUUUUGUAUGGCAAAUUUCUUAUAUACAAUAUCCGAUUUACUUCAGGUGGAAGUCGAAUGUUCGCCCUCUUCAACAGAGGAUUGAGCAUCA
B18: chr10:33190432:33190433:-_ENSG00000150093_ENST00000302278|hu_mus|hu_hu_hu_mus_True|48_48 (ssRNA)
RNA: GGGAGUUCUACAGUCCGACGAUCUACAUUUUCCAAACCUGCAUGUGAAUAAAACCCUGGCCACAGAGCCCCAAAACUACCCUACUGUGACUAUGGAGCUGCUGCUGUGAGCUUGGUGUUGCAAAAUCCGCCUGAGUAGGAUUCCAACAGAGGAUUGAGCAUCA
B19: chr1:45868982:45868983:+_ENSMUSG00000025995_ENSMUST00000027139|mus_hu|FALSE|FALSE (ssRNA)
RNA: GGGAGUUCUACAGUCCGACGAUCAGAAGUGCAGAAUAAAUCUCCUGCAGGCGAGACUGAGAUAUGUUCAAUAGUAGCUCCUAAACGCGGGAGAAACUCCUUAUUCUUCUCUGUUGCAUCGCGCCACUCUACAAGUACAGAUUCCAACAGAGGAUUGAGCAUCA
B20: chr2:48034816:48034817:-_ENSG00000138081_ENST00000403359|hu_mus|FALSE|FALSE (ssRNA)
RNA: GGGAGUUCUACAGUCCGACGAUCUCAUAUUCUCAAUCUGAAUACAUGUUAAACAAAAAAAAAAAAAUCAAUGCAGAAGUGCUAGCUCACAUUUUUACCAUAUUACAAAAAGCAAUUGGUACCCAUGUCCAUAAAGGCAGCAACCAACAGAGGAUUGAGCAUCA
B21: chr1:39494564:39494565:+_ENSG00000168653_ENST00000372967|hu_hu|hu_hu_hu_mus_True|68_98 (ssRNA)
RNA: GGGAGUUCUACAGUCCGACGAUCAUGCAUUCGCCUCAUCGUUUUCUACCGAAGCAAGCACUCUUCGAAAUCAUCAUACUCUAUCUUGCACUCCUUUUUCGCCCGGGUCCCACCGAUCCCGUGUGCACACUCUAUCCACUCUUUCAACAGAGGAUUGAGCAUCA
B22: 137028346_137028466_205_5pUTR_ENSG00000105894_ENST00000348225|human|control|control (ssRNA)
RNA: GGGAGUUCUACAGUCCGACGAUCUCUCUCCACUUUGGAUUUUCCUCUGCUCUGGGGCUCUCUUGGCGGGAUUUUUGGACUGGAAGGCGGGGAACCUGAUCCUGCCUUUGACUCAAUUACGCCCUGACAGGGAGGGAACGGAAGCAACAGAGGAUUGAGCAUCA

This is one part of the list.

For the assay, the target named is T1, UNK ZnF1-3 (human, UniProt Q9C0B0 31-174).
T1 sequence: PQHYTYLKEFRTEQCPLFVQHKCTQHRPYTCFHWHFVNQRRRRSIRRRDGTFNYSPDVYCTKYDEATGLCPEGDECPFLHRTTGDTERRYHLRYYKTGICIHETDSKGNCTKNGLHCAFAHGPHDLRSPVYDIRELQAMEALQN
Description: nsRBNS (natural sequence RNA bind-n-seq); RBNS binding buffer (assumed for nsRBNS): 25 mM Tris pH 7.5, 150 mM KCl, 3 mM MgCl2, 0.01% Triton X-100, 500 ug/ml BSA, 20 U/ml SUPERase-In, 4 C; UNK is unkempt and MSI1 is Musashi-1; names of the RNAs are library labels; protein concentration not given here; high values mean tight binding.
B1 came in with a binding signal of 3.17 enrichment R.

With B2, the binding signal turned out to be 1.12 enrichment R.

Molecule B3 showed a binding signal of 0.861 enrichment R.

On to B4, for which the binding signal turned out to be 0.577 enrichment R.

As to B5, the binding signal was determined as 0.498 enrichment R.

As for B6, the binding signal was determined as 0.524 enrichment R.

With B7, the binding signal came out at 1.25 enrichment R.

For the molecule B8, the binding signal was found to be 1.34 enrichment R.

Regarding B9, the binding signal was 0.642 enrichment R.

Turning to B10, the binding signal amounted to 1.47 enrichment R.

B11 showed a binding signal of 1.75 enrichment R.

In turn, B12 returned a binding signal of 0.677 enrichment R.

As to B13, the binding signal came out at 1.45 enrichment R.

For the molecule B14, the binding signal is 1.16 enrichment R.

B15 displayed a binding signal of 2.27 enrichment R.

Molecule B16 gave a binding signal of 0.896 enrichment R.

In the case of B17, the binding signal worked out at 0.47 enrichment R.

The molecule B18 displayed a binding signal of 0.951 enrichment R.

For B19, the binding signal is 0.826 enrichment R.

As for B20, the binding signal is 2.03 enrichment R.

As to B21, the binding signal stood at 0.724 enrichment R.

In the case of B22, the binding signal worked out at 0.768 enrichment R.
